The other results are listed elsewhere or left out.
system: PfSIP2 AP2 domain 1 (GST-tagged); assay: gcPBM binding intensity (ln(normalized median fluorescence intensity)); higher = stronger DNA binding
Outline: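 Binding intensity is defined as the maximum Masliner-normalised natural-log median intensity across replicate spots for either probe orientation. It was measured on an Agilent 4 × 180k array of primer-extended double-stranded 36-bp intergenic genomic probes and negative controls, to which GST-tagged P. falciparum DNA-binding domains made in E. coli were applied for 1 h in 1× PBS with 1% milk, 0.2 mg/ml BSA, 0.5% salmon testes DNA and 0.03% Triton X-100. Detection was by Alexa488 anti-GST antibody and scanning at 488 nm.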

Compared with “GTTATATGAACTTATATACACACCATTTTTGTAAAT [CACACA_site695]”, “AAATCATATTCTTATTTTATTTTTTTTATTTTTTAT [XGTACX_negctrl_site166]” is lower in “gcPBM binding intensity (ln)” value: 6.95 for the first, 6.78 for the second.

Going from “TGTAGATATTTTTGGGGTACTTTATAAAGAACTAGT [XGTACX_site5635]” to “GAAAAACAAATATATTAACACACAAACATATAAACA [CACACA_site9315]”, the “gcPBM binding intensity (ln)” value falls from 7.28 to 7.13.

Compared with “AAATATTGTTTTTTATGTACTTATTTTTATTTATTT [XGTACX_site3481]”, “ATGAAAAAGTGCTGGATTCTAAAGAAAAAAAAAAAA [CACACA_negctrl_site962]” is lower in “gcPBM binding intensity (ln)” value: 7.18 for the first, 7 for the second.

Compared with “ATAAAATCAACAAATCAGGATGTCACGTAAATATCA [CACACA_negctrl_site1009]”, ATATTTTATATATTTGTGCACAATATTATAATATAT is higher in “gcPBM binding intensity (ln)” value: 6.85 for the first, 8.63 for the second.

First: ACATATTTATATGTCTGTACAAATATGCAATTTTTT [XGTACX_site5516]
Second: TTAGATAGATTTGTACGTACTTATTATAACGTATCA [XGTACX_site5067]
The “gcPBM binding intensity (ln)” value of the first is lower: 6.99 for the first, 7.3 for the second.

Going from “AATTTATAAATAATTAATTTGATAAATTATAAAGGG [GTGCAC_negctrl_site544]” to “GGATAATCATACGAAGCATGCTGAATTTCCAAATAA [TGCATGCA_site1013]”, the “gcPBM binding intensity (ln)” value falls from 7.02 to 6.67.

Going from “AAAAAAATTAAATGGGGTACAATAAGGGTCAAATAT [XGTACX_site8669]” to “TTTTATTATATATATTGTACATATATTTTTATTTTT [XGTACX_site1564]”, the “gcPBM binding intensity (ln)” value falls from 7.19 to 7.1.

Compared with “AAAAAAAAAAATGGCTGTACATAATATTTAAATAGG [XGTACX_site4286]”, “AAAAAAAAAAAAAACACACATACATACATACATATA [CACACA_site4121]” is higher in “gcPBM binding intensity (ln)” value: 7.04 for the first, 7.22 for the second.

Compared with “ATATTTATAACTTGGTGTACTTTGAAAAAAAAAAAA [XGTACX_site5194]”, “ATAATTTTTTAGATCACACATATAAATAAATAAATA [CACACA_site5175]” is lower in “gcPBM binding intensity (ln)” value: 6.97 for the first, 6.95 for the second.

Going from “TTATATTAGCCGATGGTGCATATATTTATAGGAAAA [GTGCAC_site9518]” to “ATAAATCAAATGCACACACACAAAAAAAAAAAAAAA [CACACA_site6221]”, the “gcPBM binding intensity (ln)” value falls from 10.1 to 7.46.

First: TACAAAAATATATAAACACACAAATATAATATATAT [CACACA_site2942]
Second: TAATAAATGACAAATTAACACACATATATTATATAT [CACACA_site9294]
The “gcPBM binding intensity (ln)” value of the first is higher: 7.09 for the first, 6.9 for the second.

Going from “CGCTCTCTTTAATATTGTACATATATATTATATATA [XGTACX_site7017]” to “TATATATAATATTTTTCACACACCATTTCCTTAAAC [CACACA_site1341]”, the “gcPBM binding intensity (ln)” value falls from 7.31 to 7.08.
